# Some of the results follow. Values were computed here from the reads of four pooled replicates and scatter widely.
# Biological target: T1, Pho4 (S. cerevisiae) (UniProt P07270)
# T1 sequence: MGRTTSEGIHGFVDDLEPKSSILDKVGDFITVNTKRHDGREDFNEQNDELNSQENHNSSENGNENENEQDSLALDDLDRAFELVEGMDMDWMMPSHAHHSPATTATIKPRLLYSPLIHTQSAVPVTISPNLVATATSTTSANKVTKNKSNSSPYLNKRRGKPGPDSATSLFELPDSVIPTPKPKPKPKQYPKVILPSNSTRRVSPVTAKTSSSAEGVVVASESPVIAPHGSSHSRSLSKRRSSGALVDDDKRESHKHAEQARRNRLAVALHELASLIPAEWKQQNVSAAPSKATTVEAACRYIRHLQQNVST
# Assay: relative binding free energy (BET-seq); higher = weaker binding
# Settings: reference: library average
row,Sequence,relative binding free energy
1,TTGCGCACGTGGATTT,0.05 kcal/mol
2,GTCGGCACGTGATTAT,0.1 kcal/mol
3,AAGTACACGTGTTGGT,0.1 kcal/mol
4,CTTTGCACGTGGTGGG,-0.15 kcal/mol
5,AGGTGCACGTGATCGT,0.03 kcal/mol
6,TCTGTCACGTGCTTGT,0 kcal/mol
7,TAATTCACGTGGAAAT,0.33 kcal/mol
8,CTTGGCACGTGTCTGT,-0.1 kcal/mol
9,GATTCCACGTGTGGGC,0.28 kcal/mol
10,AGTTACACGTGTTTAG,0.01 kcal/mol
11,ACTTGCACGTGGGGGT,-0.25 kcal/mol
12,TGGGTCACGTGGCTCG,-0.07 kcal/mol
13,GGGCACACGTGGGGAT,0.1 kcal/mol
14,ATGAGCACGTGGAAGG,0.17 kcal/mol
15,TATTCCACGTGTATTG,-0.01 kcal/mol
16,CTGCGCACGTGTTGGT,-0.14 kcal/mol
17,GTAGGCACGTGGCAAG,-0.18 kcal/mol
18,GCAAACACGTGGGTGT,-0.05 kcal/mol
19,TAAGGCACGTGATTAT,0.03 kcal/mol
20,AAGGACACGTGGTGCT,0.02 kcal/mol
21,GGGAGCACGTGGCTTT,-0.05 kcal/mol
22,AGTAGCACGTGGCTTT,-0.21 kcal/mol
23,TGTTTCACGTGTCTAA,0.27 kcal/mol
24,CTCTGCACGTGTTGTT,-0.09 kcal/mol
25,ATTCTCACGTGGTGGG,0.19 kcal/mol

row,Sequence,relative binding free energy
1,ATGTTCACGTGTTGTG,0.26 kcal/mol
2,AGTTTCACGTGGGATC,0.29 kcal/mol
3,TTGTTCACGTGTTAAT,0.3 kcal/mol
4,TCATTCACGTGTGTAT,0.25 kcal/mol
5,GGGAACACGTGCGTGG,-0.03 kcal/mol
6,TATCGCACGTGTTCGG,-0.11 kcal/mol
7,ATCGGCACGTGTGAGG,-0.04 kcal/mol
8,GTAGGCACGTGGTGCA,-0.07 kcal/mol
9,TGTAACACGTGATTGC,0.22 kcal/mol
10,AGGACCACGTGGGTGG,-0.11 kcal/mol
11,TATAGCACGTGGGGGA,-0.23 kcal/mol
12,GGTGACACGTGGGGGC,-0.01 kcal/mol
13,TACTTCACGTGTTCGG,0.35 kcal/mol
14,TTGGGCACGTGAAGGT,0.1 kcal/mol
15,AGGTTCACGTGCGCGT,0.05 kcal/mol
16,ATCGGCACGTGAGGTC,0.12 kcal/mol
17,GTCGTCACGTGGTAGT,0.1 kcal/mol
18,GGTGACACGTGGGAAT,-0.08 kcal/mol
19,GCGAACACGTGTGGTT,0.18 kcal/mol
20,ATTTCCACGTGATGGG,0.3 kcal/mol
21,AGAGGCACGTGTAGCT,-0.1 kcal/mol
22,GGTGTCACGTGCGGCG,0.1 kcal/mol
23,GTATGCACGTGTAGCT,0.14 kcal/mol
24,GGGAGCACGTGGGCCT,-0.19 kcal/mol
25,CTTCACACGTGGGTTT,0.03 kcal/mol

row,Sequence,relative binding free energy
1,AGGGGCACGTGTATAG,-0.06 kcal/mol
2,ATAGGCACGTGATTGT,-0.06 kcal/mol
3,GTTGTCACGTGCCGGT,0.07 kcal/mol
4,GCAGTCACGTGGAAGG,0.24 kcal/mol
5,TGGGTCACGTGCGGTC,0 kcal/mol
6,TTTTTCACGTGAAAGT,0.44 kcal/mol
7,TCAAACACGTGGGGGA,-0.08 kcal/mol
8,ATGCGCACGTGTGGAG,-0.01 kcal/mol
9,ACTTGCACGTGAGAGG,0.19 kcal/mol
10,GTCGGCACGTGCTGTA,-0.1 kcal/mol
11,GGGAGCACGTGTTATA,0.01 kcal/mol
12,TTAAGCACGTGTGTAC,-0.05 kcal/mol
13,GGGAGCACGTGAGGAT,0.21 kcal/mol
14,CTGTGCACGTGTTTGT,0.02 kcal/mol
15,GCTTTCACGTGTGTTG,0.24 kcal/mol
16,TAGCTCACGTGGGTTG,0.03 kcal/mol
17,TGTGCCACGTGCGTGT,-0.36 kcal/mol
18,GTAAGCACGTGGGGTG,-0.19 kcal/mol
19,TTGGTCACGTGTGTTC,0.15 kcal/mol
20,GTGTGCACGTGGTCGG,-0.09 kcal/mol
21,ATTATCACGTGGTAAA,0 kcal/mol
22,GAGTACACGTGTCGGT,0.08 kcal/mol
23,ATGTGCACGTGCGTGG,-0.17 kcal/mol
